Assay results: article PMC11014668
Results are given in words; binding and its absence hold for the method and conditions named. In cells and extracts the contact can be indirect. Some binding calls cover weakened binding; strength is not graded here. One block for each substance: values may come before it.

Chains of the proteins cited; added tags and fusions are not shown. Lines headed by an entry give the natural chain unless they say otherwise; changes in a name come on top. A line that says so, or that is headed by a name, gives the form on record, which may keep a tag or linker.
UniProt P40337: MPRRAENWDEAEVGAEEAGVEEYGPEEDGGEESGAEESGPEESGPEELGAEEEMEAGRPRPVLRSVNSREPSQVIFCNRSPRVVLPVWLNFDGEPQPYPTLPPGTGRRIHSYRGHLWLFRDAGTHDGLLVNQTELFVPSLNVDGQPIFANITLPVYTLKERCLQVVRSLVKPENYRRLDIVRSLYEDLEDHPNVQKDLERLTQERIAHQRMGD
VHL E3 ligase deficient mutant (VHL^Δ92–121) (P40337, form named): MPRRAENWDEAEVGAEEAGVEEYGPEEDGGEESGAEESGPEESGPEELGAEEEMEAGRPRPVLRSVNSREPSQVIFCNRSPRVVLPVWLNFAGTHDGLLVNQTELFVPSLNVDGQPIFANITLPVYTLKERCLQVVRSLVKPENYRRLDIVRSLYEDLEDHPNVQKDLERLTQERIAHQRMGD
UniProt Q86U44: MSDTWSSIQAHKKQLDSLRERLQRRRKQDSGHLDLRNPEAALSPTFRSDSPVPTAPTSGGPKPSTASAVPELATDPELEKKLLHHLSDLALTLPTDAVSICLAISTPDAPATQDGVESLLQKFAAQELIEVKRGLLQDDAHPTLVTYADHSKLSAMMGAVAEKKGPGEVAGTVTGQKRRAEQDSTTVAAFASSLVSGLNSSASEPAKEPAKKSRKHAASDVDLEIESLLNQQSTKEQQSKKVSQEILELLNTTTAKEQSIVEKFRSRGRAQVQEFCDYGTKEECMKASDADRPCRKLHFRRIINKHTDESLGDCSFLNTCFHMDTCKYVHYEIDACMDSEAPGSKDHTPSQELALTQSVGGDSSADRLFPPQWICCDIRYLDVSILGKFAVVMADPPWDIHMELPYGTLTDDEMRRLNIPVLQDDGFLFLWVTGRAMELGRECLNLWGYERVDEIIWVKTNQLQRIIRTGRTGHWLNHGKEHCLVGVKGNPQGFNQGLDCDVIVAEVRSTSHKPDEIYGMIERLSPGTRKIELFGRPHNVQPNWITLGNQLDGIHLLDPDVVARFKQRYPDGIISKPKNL

Legend:
[1] = target: VHL, tagged, expressed in 293T cells (Figure 1, A-D) (UniProt P40337); test: co-IP; anti-Flag or anti-HA immunoprecipitation from lysates of transfected 293T cells (exogenous and semi-endogenous); EBC buffer (0.1 mM EDTA, 50 mM Tris-HCl pH 8.0, 120 mM NaCl, 0.5% NP-40, 10% glycerol), overnight at 4°C
[2] = target: IVT Flag-VHL (UniProt P40337); test: pull-down; anti-Flag immunoprecipitation of IVT Flag-VHL with GST-tagged proteins expressed in vitro; EBC buffer, overnight at 4°C, in the presence of RNase
[3] = target: T1, METTL14 (co-IP of Supplemental Figure 1, C and D) (UniProt Q9HCE5); test: co-IP; co-IP of VHL WT, truncation mutants and VHLΔ92–121 with METTL3 or METTL14 (Supplemental Figure 1, C and D)
T1 sequence: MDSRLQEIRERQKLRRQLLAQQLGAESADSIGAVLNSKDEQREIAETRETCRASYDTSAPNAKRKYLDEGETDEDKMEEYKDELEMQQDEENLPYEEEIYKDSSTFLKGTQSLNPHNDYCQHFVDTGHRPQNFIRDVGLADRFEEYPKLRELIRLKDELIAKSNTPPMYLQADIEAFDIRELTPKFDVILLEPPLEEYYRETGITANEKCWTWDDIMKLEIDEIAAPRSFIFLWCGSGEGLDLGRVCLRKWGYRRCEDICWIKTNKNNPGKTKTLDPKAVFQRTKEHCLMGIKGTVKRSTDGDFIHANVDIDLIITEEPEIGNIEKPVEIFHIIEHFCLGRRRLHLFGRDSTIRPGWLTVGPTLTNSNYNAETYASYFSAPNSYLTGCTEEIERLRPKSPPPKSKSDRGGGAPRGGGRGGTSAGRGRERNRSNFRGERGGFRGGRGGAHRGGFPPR

[4] = target: METTL3 (co-IP of Supplemental Figure 1, C and D) (UniProt Q86U44); test: as above
[5] = target: endogenous VHL (human (endogenous in HKC; cell line of Figure 1F-H not named)) (UniProt P40337); test: co-IP; endogenous immunoprecipitation with antibodies to VHL, METTL3 or METTL14; cell line not named; EBC buffer, Protein G beads
[6] = target: endogenous VHL (human (endogenous in HKC; cell line of Figure 1F-H not named)) (UniProt P40337); test: co-IP; endogenous VHL immunoprecipitation from HKC cells
[7] = target: T2, endogenous METTL14 (human (endogenous in HKC, 786O, UMRC2)) (UniProt Q9HCE5); test: co-IP; endogenous immunoprecipitation with antibodies to VHL, METTL3 or METTL14; cell line not named; EBC buffer, Protein G beads
T2 sequence: T1 sequence

[8] = target: endogenous METTL3 (human (endogenous in 293T, HKC, 786O, UMRC2)) (UniProt Q86U44); test: as above
[9] = target: GST-VHL (UniProt P40337); test: pull-down; GST pull-down with purified GST or GST-VHL and IVT HA-METTL3; EBC buffer, overnight at 4°C, RNase Cocktail added; only the target purified

- binding [2]: binds
Substance: METTL3-GST (from UniProt Q86U44 1-580)

- binding [3]: no binding
- binding [4]: no binding
Substance: VHL E3 ligase deficient mutant (VHL^Δ92–121) (from UniProt P40337 1-213)

- binding [9]: binds
Substance: in vitro translated (IVT) HA-METTL3 (from UniProt Q86U44 1-580)

More lines, now with the values behind:

Substance: METTL3, tagged, expressed in 293T cells (Figure 1, A-D) (from UniProt Q86U44 1-580)
- binding [1]: binds

Substance: VHL WT (co-IP of Supplemental Figure 1, C and D) (from UniProt P40337 1-213)
- binding [3]: binds
- binding [4]: binds

Substance: endogenous METTL3 (from UniProt Q86U44 1-580)
- binding [5]: binds
- binding [1]: binds
- binding [6]: binds

Substance: endogenous VHL (from UniProt P40337 1-213)
- binding [7]: binds
- binding [8]: binds
